4 molecules from patent publication EP4818210A1 (Minghui Pharmaceutical (Hangzhou) Ltd., dated 2025) can be followed below.

Like-named read-outs stand apart in the source and are kept apart here.

For assay [1], the target named is T1, Her2/ERBB2 Protein, Human, Recombinant (ECD, His Tag) (human, UniProt P04626 fragment).
T1 construct: extracellular domain; bought reagent; also called human HER2 antigen; recombinant human HER2; not shown: His tag
The assay can be described thus: ELISA, coated HER2 ECD-His.

In assay [2] the target is T1, Her2/ERBB2 Protein, Human, Recombinant …. The assay can be described thus: ELISA, coated HER2 ECD-His. The source holds these as a separate data set. On the technique in general: In an ELISA, binding on a coated surface is turned into a signal by an enzyme label.
Assay [3] shares this target. The assay can be described thus: ELISA, coated HER2 ECD-His. This is another data set of the same source.
Assay [4] concerns the target T2, Human HER3 Protein, His Tag (ACRO, Cat. No. ER3-H5223) (human, UniProt P21860 fragment).
T2 construct: bought reagent; not shown: His tag
The assay can be described thus: ELISA, coated HER3-His.

The target of assay [5] is T3, Human HER4 Protein, His Tag (Sino Biological, Cat. No. 10363-H08H) (human, UniProt Q15303 26-649).
T3 construct: bought reagent; not shown: His tag
T3 sequence (looked up): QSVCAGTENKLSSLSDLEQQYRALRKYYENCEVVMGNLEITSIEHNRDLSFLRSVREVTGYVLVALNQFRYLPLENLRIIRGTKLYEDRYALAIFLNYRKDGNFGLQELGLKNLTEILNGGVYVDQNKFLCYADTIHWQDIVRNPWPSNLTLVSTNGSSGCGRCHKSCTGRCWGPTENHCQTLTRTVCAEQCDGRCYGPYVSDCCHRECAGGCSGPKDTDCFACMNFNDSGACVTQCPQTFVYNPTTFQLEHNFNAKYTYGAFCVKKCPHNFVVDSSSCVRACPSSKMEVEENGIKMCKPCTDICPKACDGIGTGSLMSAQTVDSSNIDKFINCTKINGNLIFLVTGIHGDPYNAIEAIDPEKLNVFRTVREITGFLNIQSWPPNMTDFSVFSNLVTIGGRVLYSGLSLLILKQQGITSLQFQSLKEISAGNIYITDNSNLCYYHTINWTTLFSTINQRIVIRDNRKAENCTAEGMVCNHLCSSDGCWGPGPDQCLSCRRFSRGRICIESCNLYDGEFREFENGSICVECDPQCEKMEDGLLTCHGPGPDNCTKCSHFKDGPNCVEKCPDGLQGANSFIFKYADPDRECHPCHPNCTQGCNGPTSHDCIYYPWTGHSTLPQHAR
The assay can be described thus: ELISA, coated HER4-His.

In assay [6] the target is T4, Human HER2, His Tag (ACRO, Cat. No. HE2-H5225) (human, UniProt P04626 fragment).
T4 construct: bought reagent; not shown: His tag
The assay can be described thus: ELISA, coated human HER2-His.

Assay [7] deals with T4, Human HER2, His Tag (ACRO, Cat. No. …). The assay can be described thus: ELISA, coated human HER2-His. This is another data set of the same source.

By EC50 is commonly meant the concentration giving half of the maximal effect.

B1: MHAB14-10 (Fc fusion)
chain: QVQLVESGGGMVQPGGSLRLSCAASGITFRHYTMSWYRQAPGKERELVASITYGGVTTNYADSVKGRFTLSRDDAKTTAYLQMTGLKPEDTAVYYCHADWTAAGLNHWGQGTQVTVSS[human IgG1 Fc with changes not printed]
notes: VHH-Fc fusion from CHO cells; also called parental MHAB14-10
With B1, the half-maximal effective concentration (EC50) amounted to 1.76 ng/mL in assay [1] and 1.19 ng/mL in assay [2].

B2: MHAB14-10-5 (Fc fusion)
chain: QVQLVESGGGLVQPGGSLRLSCAASGITFRHYTMSWVRQAPGKERELVASITYGGVTTYYADSVKGRFTISRDNAKNTLYLQMNSLRPEDTAVYYCHADWTAAGLNHWGQGTQVTVSS[human IgG1 Fc with changes not printed]
notes: humanized VHH-Fc fusion
B2: in assay [2], the EC50 amounted to 1.47 ng/mL.

B3: MHAB14-14 (Fc fusion)
chain: QVQLVESGGGLVQPGGSLRLSCAASGFIFGNYPMNWYRQAPGKEREFVAVITRDGGVTRYAASVKGRFTITRDNAKNTVFLQMNSLKLEDTAVYYCHNPNYNAWGQGTQVTVAS[human IgG1 Fc with changes not printed]
notes: VHH-Fc fusion from CHO cells; also called parental MHAB14-14
As to B3, the half-maximal effective concentration (EC50) in assay [1] was found to be 3.01 ng/mL; in assay [3], 2.01 ng/mL.

B4: MHAB14-14-6 (Fc fusion)
chain: QVQLVESGGGLVQPGGSLRLSCAASGFIFGNYPMNWYRQAPGKEREFVAVITRDGGVTYYADSVKGRFTISRDNAKNTVYLQMNSLRAEDTAVYYCHNPNYNAWGQGTQVTVSS[human IgG1 Fc with changes not printed]
notes: humanized VHH-Fc fusion
For B4, the binding result in assay [4] and in assay [5] was “no binding (tested: 10 µg/mL (initial concentration))” throughout. The EC50 came to 4.97 ng/mL in assay [3], 9.91 ng/mL in assay [6] and 8.45 ng/mL in assay [7].
